# Structures can show the parent of a compound that is named as a salt. ± gives the standard deviation of the averaged measurements. Over roughly 1,900 compounds, “normalised cell viability (NPI; 0 = phenylarsine oxide control, 1 = DMSO control)” has its median near 1; the lowest 2% begin near 0.039. The list shows a part of the results.
# System: NCI-H1944
# Assay: normalised cell viability (NPI; 0 = phenylarsine oxide control, 1 = DMSO control) (fraction of DMSO control); NCI-H1944 is a non-small cell lung cancer line; higher = more viable cells (less compound toxicity)
# Conditions: 6 days
# [1] = glucocorticoid arm: hydrocortisone 2.75 uM co-treatment, compound 1 µM
# [2] = glucocorticoid arm: hydrocortisone 2.75 uM co-treatment, compound 5 µM
# [3] = glucocorticoid arm: hydrocortisone 2.75 uM pre-treated 2 days and continued, compound 1 µM
# [4] = glucocorticoid arm: hydrocortisone 2.75 uM pre-treated 2 days and continued, compound 5 µM
# [5] = glucocorticoid arm: vehicle, compound 1 µM
# [6] = glucocorticoid arm: vehicle, compound 5 µM
# 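Note: CTB read-out in 384-well plates, mean of triplicate wells, normalised per plate against 1 µM phenylarsine oxide and 0.1% DMSO, compounds added 24 h after seeding.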
Structure (SMILES),normalised cell viability [1],normalised cell viability [2],normalised cell viability [3],normalised cell viability [4],normalised cell viability [5],normalised cell viability [6]
CN(C)Cc1cccc(N=C(c2ccccc2)c2c(O)[nH]c3cc(C(=O)N(C)C)ccc23)c1,0.961 ± 0.02,0.785 ± 0.024,0.9773 ± 0.0065,0.832 ± 0.048,0.987 ± 0.012,0.938 ± 0.03
NC[C@@H](O)c1ccc(O)c(O)c1 [L(-)-Norepinephrine bitartrate],1 ± 0.018,0.971 ± 0.011,1 ± 0.021,0.968 ± 0.0085,0.98 ± 0.017,0.9767 ± 0.0011
Cc1cc(Cn2cnc3c2C[C@@H](C(=O)O)N(C(=O)C(c2ccccc2)c2ccccc2)C3)ccc1N,1.03 ± 0.01,1.01 ± 0.022,1.023 ± 0.0058,1.01 ± 0.014,1.027 ± 0.0058,1.02
CCCCCCC(=O)OC1CC(C)(C)NC(C)(C)C1 [TMPH hydrochloride],1.006 ± 0.0075,1.01 ± 0.018,1.007 ± 0.0058,1.03 ± 0.1,0.9897 ± 0.0059,1 ± 0.018
Oc1cc2c(cc1O)CN(C(=S)NCCc1ccc(Cl)cc1)CCC2 [Capsazepine],0.994 ± 0.0056,1.02 ± 0.021,0.99 ± 0.012,0.994 ± 0.015,0.9793 ± 0.0032,0.993 ± 0.01
CCCCCCCC/C=C\CCCCCCCC(=O)NCCO [N-Oleoylethanolamine],1.013 ± 0.0058,1.03 ± 0.026,1.01 ± 0.013,1.05 ± 0.073,1.006 ± 0.0069,1.02 ± 0.011
CNCC[C@@H](Oc1ccc(C(F)(F)F)cc1)c1ccccc1 [R-(-)-Fluoxetine hydrochloride],0.999 ± 0.011,0.92 ± 0.014,1.013 ± 0.0058,1.02 ± 0.029,0.995 ± 0.0036,0.9947 ± 0.005
CCN(CC)C(=O)/C(C#N)=C/c1cc(O)c(O)c([N+](=O)[O-])c1 [Entacapone],0.976 ± 0.019,0.992 ± 0.017,0.975 ± 0.014,0.9927 ± 0.0087,0.993 ± 0.016,0.998 ± 0.0035
C[C@]12C=CC(=O)C=C1CC[C@H]1[C@@H]3C[C@@H](O)[C@](O)(C(=O)CO)[C@@]3(C)C[C@H](O)[C@@]12F [Triamcinolone],1.007 ± 0.0058,1.02 ± 0.015,0.885 ± 0.2,1.03 ± 0.01,0.954 ± 0.022,0.851 ± 0.015
COc1cccc2cc(-c3nc([C@H]4CC[C@H](C(=O)O)CC4)n4ncnc(N)c34)[nH]c12,0.734 ± 0.025,0.472 ± 0.006,0.7097 ± 0.0042,0.638 ± 0.093,0.799 ± 0.035,0.411 ± 0.054
NC1CCN(O)C1=O (racemic),0.983 ± 0.011,0.999 ± 0.011,0.9857 ± 0.0051,0.984 ± 0.023,0.985 ± 0.013,0.98733 ± 0.00058
CCN(CC)CCOC(=O)c1ccc(N)cc1 [Procaine hydrochloride],0.992 ± 0.0046,0.9923 ± 0.0067,1.01 ± 0.027,0.973 ± 0.012,0.9793 ± 0.0051,0.9873 ± 0.0047
Cn1ccnc1 [1-Methylimidazole],0.989 ± 0.0096,1.01 ± 0.031,1 ± 0.0089,1.04 ± 0.1,1.003 ± 0.0064,1.01 ± 0.01
O=c1[nH]c2cc(C(F)(F)F)ccc2n1-c1cc(C(F)(F)F)ccc1O,1.01,1.03 ± 0.017,1.01,1.07 ± 0.085,0.992 ± 0.003,1 ± 0.018
N[C@@H](CCCC(=O)O)C(=O)O [L-2-aminoadipic acid],0.9947 ± 0.0055,0.991 ± 0.015,0.997 ± 0.013,0.97 ± 0.018,0.979 ± 0.014,0.9823 ± 0.0067
"O=c1cc(-c2ccccc2)[nH]c2nc(Cl)ccc12 [7-Chloro-4-hydroxy-2-phenyl-1,8-naphthyridine]",1.003 ± 0.0063,1.02,1.002 ± 0.0068,1.01 ± 0.014,0.995 ± 0.005,0.776 ± 0.41
O=c1[nH]c(=O)c2nc3ccccc3nc2[nH]1 [Alloxazine],0.998 ± 0.011,1.03 ± 0.015,1.01 ± 0.011,1.025 ± 0.0071,0.9967 ± 0.004,1.01
N#C/C(=C\c1ccc(O)c(O)c1)C(=O)NCCc1ccccc1 [Tyrphostin AG 698],1.017 ± 0.0058,1.02 ± 0.015,0.876 ± 0.25,0.994 ± 0.014,1.033 ± 0.0058,1.033 ± 0.0058
CC(=O)O[C@H]1C[C@@]2(C)[C@@H](C[C@@H](O)[C@H]3[C@@]4(C)CC[C@@H](O)[C@@H](C)[C@@H]4CC[C@@]32C)/C1=C(\CCC=C(C)C)C(=O)O [Fusidic acid sodium salt],0.997 ± 0.013,0.985 ± 0.018,0.999 ± 0.021,0.996 ± 0.03,0.991 ± 0.0095,0.993 ± 0.0046
CC(=O)N[C@@H](CS)C(=O)O [N-Acetyl-L-Cysteine],1.003 ± 0.0064,1 ± 0.017,1 ± 0.016,0.961 ± 0.024,0.9913 ± 0.0075,0.986 ± 0.0027
C[C@]1(c2nc3c(C(N)=O)cccc3[nH]2)CCCN1 [Veliparib (ABT-888)],0.983 ± 0.011,0.972 ± 0.012,0.979 ± 0.01,0.975 ± 0.014,0.996 ± 0.014,0.984 ± 0.0089
NC(=O)OCC(COC(N)=O)c1ccccc1 [Felbamate],1.013 ± 0.0058,0.989 ± 0.016,1.017 ± 0.0058,1 ± 0.033,1.013 ± 0.0058,1.01 ± 0.01
COc1ccccc1NC(=O)Nc1nc(-c2cccnc2)nc2ccccc12,1.023 ± 0.0058,1.03 ± 0.017,1.05 ± 0.047,1.03 ± 0.015,1.03,1.037 ± 0.0058
COCc1nc2c([nH]1)c(=O)n(C)c(=O)n2CC(C)C [8-Methoxymethyl-3-isobutyl-1-methylxanthine],0.999 ± 0.001,0.997 ± 0.029,1 ± 0.016,1.03 ± 0.075,1.005 ± 0.0087,1.01 ± 0.01
COC(=O)Nc1ccc(-c2nc(N3CCOCC3)c3cnn(C4CCN(C(=O)OC)CC4)c3n2)cc1,0.505 ± 0.038,0.753 ± 0.013,0.563 ± 0.029,0.769 ± 0.067,0.476 ± 0.02,0.924 ± 0.015
